# About 1,200 (2.5%) of roughly 48,000 compounds were called active. Not shown: some 2% with an inconclusive outcome.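 The calls were made as follows: active = activation of at least 60% and not above a set upper limit (about 1 call in 100 departs from these limits); inconclusive = activation of 40% to 60%, or above that upper limit; inactive = activation under 40%.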 Some of the results follow.
# Target: Probable G-protein coupled receptor 32 (Homo sapiens) (UniProt O75388)
# Assay: qHTS for Agonists of Human Resolvin D1 Receptor DRV1; also: 0% is about no effect
# Settings: CHO-K1 GPR32 beta-arrestin PathHunter luminescence, 90 min; at 76.9 µM; active compounds read high; zero percent set by DMSO-only wells
# How it was run: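 GPR32 activation in stably transfected CHO-K1 cells, detected as beta-arrestin recruitment by enzyme-fragment complementation. Compound exposure: 90 min, 37 °C.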
# Chain of UniProt O75388 (O75388 whole entry, looked up): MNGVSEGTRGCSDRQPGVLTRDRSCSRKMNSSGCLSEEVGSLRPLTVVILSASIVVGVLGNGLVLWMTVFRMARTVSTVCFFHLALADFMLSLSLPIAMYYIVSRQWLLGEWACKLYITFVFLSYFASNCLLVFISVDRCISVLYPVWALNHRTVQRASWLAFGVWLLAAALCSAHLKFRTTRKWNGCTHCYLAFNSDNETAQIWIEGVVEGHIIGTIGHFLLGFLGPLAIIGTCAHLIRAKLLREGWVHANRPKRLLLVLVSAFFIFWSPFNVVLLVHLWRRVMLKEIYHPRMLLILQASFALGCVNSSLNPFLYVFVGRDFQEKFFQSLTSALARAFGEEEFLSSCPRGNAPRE
row,Compound,activation
1,CC(=O)c1ccc(N2CCN(C(=O)CCCn3c(=O)[nH]c4ccsc4c3=O)CC2)cc1,inactive: 35.9%
2,Cn1c(C(=O)NCc2cccc(Cl)c2)cc2oc3ccccc3c21,inactive: -11.7%
3,Cc1nn(CC(=O)NCc2ccc(N(C)C)cc2)c(=O)c2nn(-c3ccccc3)c(C)c12,inactive: -4.33%
4,COc1ccc(C(CC(=O)Nc2ccc(Br)cn2)N2Cc3ccccc3C2=O)cc1 (stereo not given),inactive: -19.8%
5,COCCCNC(=O)c1ccc(Cn2c(=O)c3cccn3c3cccnc32)cc1,inactive: 5.37%
6,Cc1ccc(Cn2c(CN3CCN(c4cccc(Cl)c4)CC3)nc3c2c(=O)n(C)c(=O)n3C)cc1,inactive: -36.5%
7,O=[N+]([O-])c1ccc(O)c(-c2ccnc3cc(-c4ccccc4)nn23)c1,inactive: -25%
8,COc1ccccc1CCNC(=O)C1CCN(c2nnc(C)c3c(C)n(-c4ccc(C)cc4)nc23)CC1,inactive: -12.9%
9,Cc1cc(Cl)ccc1OCC(=O)N(Cc1ccc(N(C)C)cc1)C1CCS(=O)(=O)C1 (stereo not given),inactive: -34.4%
10,CCCn1cc(S(=O)(=O)c2cccc(Cl)c2)c(=O)c2cc(F)c(N3CCCC3)cc21,inactive: -16.9%
11,Cc1cccc(C(C)C)c1NC(=O)c1ccc2c(c1)CCCN2S(C)(=O)=O,inactive: -3.42%
12,Cc1ccc(NC(=O)CSc2nccn2C2CCCC2)cc1Cl,inactive: -0.612%
13,CCOC(=O)c1cc(-c2ccc(C)cc2)n(CC(=O)Nc2ccc(OC)cc2OC)c1C,inactive: 4.68%
14,Cc1ccc(S(=O)(=O)CCC(=O)N2CCN(c3nc4c(C)c(C)ccc4s3)CC2)cc1,inactive: 28.6%
15,Cc1ccc(S(=O)(=O)N(CC(=O)NCCSc2ccc(Cl)cc2)c2cccc(Cl)c2)cc1,inactive: -1.94%
16,CCN1CCN(C(c2ccc(F)cc2)c2sc3nc(-c4ccco4)nn3c2O)CC1 (stereo not given),inactive: -5.78%
17,CC(=O)N1CCCC1c1nc2ccccc2n1Cc1ccccc1F (stereo not given),inactive: -4.94%
18,CCC(C)NC(=O)c1cnn(-c2cccc(F)c2)c1-n1cccc1 (stereo not given),inactive: -0.359%
19,Cc1ccc(OCC(=O)Nc2nonc2-c2ccc(Br)cc2)cc1,inactive: 22.3%
20,COc1ccc(N2CCN(C(c3ccc(F)cc3)c3sc4nc(-c5ccco5)nn4c3O)CC2)cc1 (stereo not given),inactive: 16.4%
21,CCc1cc(=O)[nH]c(SCc2nc(-c3ccc(C(F)(F)F)cc3)no2)n1,inactive: -6.2%
22,CCCCCN(C)CCC(O)(P(=O)(O)O)P(=O)(O)O,inactive: -9.22%

row,Compound,activation
1,O=C(Nc1cccc2c1CCCC2)N1CCOc2ccc(Cl)cc21,inactive: -29.8%
2,CC(C)OCCCNC(=O)CN1C(=O)c2ccccc2Sc2ncccc21,inactive: 2.88%
3,CCCC(=O)Nc1ccc2nc(SCC(=O)N3CCOCC3)sc2c1,inactive: -5.71%
4,Fc1ccc(N2CCN(c3ncnc4[nH]ncc34)CC2)cc1,inactive: 17%
5,N#C/C(=C\c1ccc(-c2cccc(Cl)c2)o1)C(=O)Nc1cccc(C(F)(F)F)c1,inactive: 9.14%
6,Cc1oc2ncnc(N3CCOCC3)c2c1C(=O)NCc1ccc(Cl)cc1,inactive: -5.72%
7,COc1ccc(CNC(=O)c2cccn2-c2nnc(N3CCCCC3)s2)c(OC)c1,inactive: -2.66%
8,C1N2CN3CN1CN(C2)C3,inactive: -7.94%
9,COc1ccc(-c2cc(C(=O)NCCc3ccccc3)c3c(-c4ccc(Cl)cc4)[nH]nc3n2)cc1,inactive: 1.5%
10,COc1ccc(CCNC(=O)CS(=O)(=O)Cc2nc(-c3cccc(Cl)c3)oc2C)cc1OC,inactive: 19.9%
11,CC(C)c1ccccc1NC(=O)Cn1cnc2c1c(=O)n(C)c(=O)n2C,inactive: 7.3%
12,CCCNC(=O)c1c(NC(=O)c2ccccc2)sc2c1CCC(C(C)(C)C)C2 (stereo not given),inactive: 8.84%
13,O=C(Cn1c(=O)n(Cc2ccc(C(=O)NCc3ccc4c(c3)OCO4)cc2)c(=O)c2ccccc21)Nc1ccccc1F,inactive: 5.57%
14,O=C(CCS(=O)(=O)c1cc(Br)cc2c1N(C(=O)C1CC1)CC2)N1CCN(c2cccc(C(F)(F)F)c2)CC1,inactive: -18.6%
15,Cc1ccc(CSc2nc3ccncc3n2Cc2nc(-c3ccccc3C)oc2C)cc1,inactive: 11.5%
16,CCCc1nnc(NC(=O)C(CC)Sc2nnc3c4ccccc4n(C)c3n2)s1 (stereo not given),inactive: -11.2%
17,COc1ccc(CNC(=O)c2sc3nc4n(c(=O)c3c2C)CCC4)cc1,inactive: -9.54%
18,COc1ccc(-n2ccn(CC(=O)Nc3ccc(C)cc3C)c(=O)c2=O)cc1,inactive: -9.4%
19,CC(C)N(Cc1nc(-c2ccc(Cl)cc2)no1)C(=O)c1ccco1,inactive: 17.8%
20,CC(C)(C)c1ccc(C(=O)NC(Cc2c[nH]c3ccccc23)C(=O)OCC(=O)c2ccc(Br)cc2)cc1 (stereo not given),inactive: -15.6%
21,COc1ccc2c(c1)c1c(c(=O)n(-c3cccc(C)c3)c(=O)n1CC(=O)NCc1ccc(C)cc1)n2C,inactive: 9.64%
22,Cc1ccc(OCC(=O)Nc2ccc3nn(-c4ccc(C)cc4)nc3c2)cc1,inactive: 1.16%

row,Compound,activation
1,COC(=O)c1cc(C)nc2c1c(=O)nc(SCc1ccccc1Cl)n2C1CC1,inactive: -14.8%
2,Cc1cccc(CCNC(=O)CCS(=O)(=O)c2cc3c(cc2C)NC(=O)CO3)c1,inactive: 4.75%
3,Cc1nn(CCC(=O)Nc2ccccc2Br)c(=O)c2nn(-c3ccccc3)c(C)c12,inactive: -5.19%
4,CCc1nnc2c(Nc3ccccc3Br)nc3ccccc3n12,inactive: 5.11%
5,COc1ccccc1N1CCN(C(=O)CNS(=O)(=O)c2ccc(Br)s2)CC1,inactive: 45.1%
6,CCc1cccc(NS(=O)(=O)c2ccc3c(c2)N(CC(=O)OC)C(=O)CS3)c1,inactive: -1.41%
7,Cn1cnc(S(=O)(=O)N2CCC(C(=O)Nc3ccc(Cl)c(C(F)(F)F)c3)CC2)c1,inactive: 33.2%
8,CCOC(=O)N1CCC2(CC1)OC(=O)C(C)=C2C(=O)NCc1ccccc1OC,inactive: -15.5%
9,O=C(CSc1nc(=O)[nH]c2c1CCCC2)NCc1ccc(F)cc1,inactive: -0.969%
10,CCOC(=O)c1c(C)c(-c2ccccc2)n(CC(=O)NCCc2cccc(C)c2)c1C,inactive: -10.7%
11,COCCn1c(C)cc(O)c(C(c2ccc(F)cc2)N2CCN(c3ccccc3)CC2)c1=O (stereo not given),inactive: -2.38%
12,COc1ccc(CC(=O)NCCS(=O)(=O)N2CCN(c3ccc(F)cc3)CC2)cc1OC,inactive: -2.65%
13,CCNC(=O)c1c(NC(=O)c2nc(S(=O)(=O)CC)ncc2Cl)sc2c1CCCC2,inactive: -2.13%
14,COc1ccccc1NC(=O)c1sc2nc3c(cc2c1N)CN(Cc1ccccc1)CC3,inactive: -22.9%
15,N[C@@H](CC(=O)O)C(=O)O,inactive: 15.5%
16,N#Cc1ccccc1Cn1cnc2nc3c(cc2c1=O)CCCC3,inactive: -4.36%
17,CCc1nc(C)cn1S(=O)(=O)c1ccc(Cl)c(Cl)c1OC,inactive: 18.8%
18,Cc1cccc(C(=O)NC2=NC(c3ccc(Cl)cc3)CC(=O)N2)c1 (stereo not given),inactive: -1.82%
19,Cc1nnc2c(N3CCN(c4ccccc4F)CC3)nc3ccc(C(=O)c4ccccc4)cc3n12,inactive: -3.03%
20,CCc1cc(=O)[nH]c(SCc2nc(-c3ccccc3)no2)n1,inactive: 8.38%
21,Cc1cccc(CC(=O)NCc2nc3cccnc3n2Cc2ccc(F)cc2)c1,inactive: -11.8%
22,CCCOc1ccc(C(=O)Nc2ccc(NC(=O)c3ccccc3)c(C)c2)cc1,inactive: -7.48%

row,Compound,activation
1,O=C(Cn1cnc2c(nc3n2CCCCC3)c1=O)Nc1ccc(F)c(Cl)c1,inactive: -5.15%
2,CS(=O)(=O)Nc1ccccc1C(=O)OCc1cc(=O)n2nc(C3CCCCC3)sc2n1,inactive: -19.8%
3,Cc1cc(F)ccc1NC(=O)CS(=O)(=O)c1cccc2nsnc12,inactive: -19%
4,Cc1ccccc1Nc1c(-c2ccccc2)nc2cccc(C)n12,inactive: -19.8%
5,CCOC(=O)C1CCC(CN(Cc2ccc(OC)cc2)S(=O)(=O)c2ccc(F)c(C(=O)Nc3c(C)cccc3C)c2)CC1 (stereo not given),inactive: -8.27%
6,O=C(Nc1cccc(Cl)c1)C1CCCN(c2ncnc3c2nc2n3CCCCC2)C1 (stereo not given),active: 67.2%
7,COc1ccc(N2CC(NC(=O)C3CCCC3)CC2=O)cc1OC (stereo not given),inactive: 1.33%
8,CCOC(=O)C(C#N)=C(c1ccccc1)c1ccccc1,inactive: 4.23%
9,CSc1ccc(CCNC(=O)c2cc3cc(S(=O)(=O)N4CCCCC4)ccc3n2C)cc1,inactive: -9.91%
10,COc1ccc(CNc2nc(SCc3ccccc3Cl)nc3ccccc23)cc1,inactive: -12.6%
11,CCN(C(=O)c1cn(CC(C)C)c(=O)c2cc(OC)c(OC)cc12)c1cc(OC)ccc1OC,inactive: -8.66%
12,CC(C)c1ccc(NC(=O)Cn2nnc(C(=O)NCc3ccc(Cl)cc3)c2N)cc1,inactive: -1.29%
13,COc1ccc2c(c1)sc1ncc(C(=O)NCc3cccc(C)c3)c(=O)n12,inactive: -9.96%
14,COc1ccc(CCNC(=O)c2cn(C)c3ccc(S(=O)(=O)N(C)C)cc3c2=O)cc1OC,inactive: -7.96%
15,CC1CCCN(S(=O)(=O)c2cc3c4c(c2)CC(=O)N4CCC3)C1 (stereo not given),inactive: -37.4%
16,Cn1nc(C(=O)N2CCN(c3ccc(F)cc3)CC2)c2c1-c1ccccc1SC2,inactive: -10.7%
17,CCc1ccc(C(=O)c2cn(CC(=O)Nc3cc(F)ccc3F)c3nc(C)ccc3c2=O)cc1,inactive: 27.7%
18,CCCn1cnc2cc(NCc3ccc(OC)cc3OC)ccc21,inactive: -30.4%
19,CCOc1ccc(CC(=O)N2CCc3cc(OC)c(OC)cc3C2COc2ccc3c(C)cc(=O)oc3c2)cc1 (stereo not given),inactive: -11%

# Source: PubChem BioAssay AID1346428 (National Center for Advancing Translational Sciences (NCATS), 2018)
